Assay results reported in the supplement of paper PMC10126150.
Sequences with one replicate were seen in a single cluster, so their values are uncertain.
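Also: ATP exposure 15 min at 22 °C before imaging.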

What follows are sequences tested on ATP (assay: switch fluorescence ratio, 500 uM ATP over buffer (Cy3 cluster intensity, sum of 5 cycles each) (fold (ratio)); higher = stronger signal-on switching upon ATP binding; sequences stand for … in TCGTCGGCAGCGTCAGATGTGTATAAGAGACAGTTTTTTTTTTTTTTTTTTTTTTTTT…TC). Details: aptamer strand: ATP DNA aptamer (quencher-CACCTGGGGGAGTATTGCGGAGGAAGG + anchor), 100 nM annealed; ATP concentration: 500 uM; one replicate.
Summary of the method: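 Clusters with intensities outside 100-1000 RFU were excluded. The remaining Cy3-labelled switching-strand clusters on a modified Illumina MiSeq flow-cell had been annealed to 100 nM quencher-labelled ATP aptamer and imaged in selection buffer, then after 15 min with 500 uM ATP at 22 °C, for five cycles separated by NaOH stripping and re-annealing. The fluorescence ratio, averaged per switch-domain sequence, is each cluster's summed target-cycle Cy3 intensity over its summed buffer-cycle Cy3 intensity.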
CCGCTATGAG gave a switch fluorescence ratio of 3.07. In the case of CCGCTCCTCG, the switch fluorescence ratio is reported as 2.24. Work on CCGCTGGAAC yielded a switch fluorescence ratio of 3.97. In the case of CCGCTGGACA, the switch fluorescence ratio is reported as 2.07. With CCGCTGGTTA the switch fluorescence ratio was 1.42. Sequence CCGCTTGTTC has a switch fluorescence ratio of 4.14. CCGGAAAACT was tested, and the switch fluorescence ratio was 1.04. Sequence CCGGAAAGCA has a switch fluorescence ratio of 1.01. CCGGAACGTG showed a switch fluorescence ratio of 0.989. In the case of CCGGAATGGG, the switch fluorescence ratio is reported as 1.32. With CCGGACCCCA the switch fluorescence ratio was 1.31. Work on CCGGACTTAA yielded a switch fluorescence ratio of 1.09. In the case of CCGGAGTTCA, the switch fluorescence ratio is reported as 2.46. CCGGATGTAT gave a switch fluorescence ratio of 1.13. With CCGGATTGGT the switch fluorescence ratio was 0.993. CCGGCATCTC was tested, and the switch fluorescence ratio was 1.96. With CCGGCCAGGC the switch fluorescence ratio was 1.19. CCGGCGTTAT showed a switch fluorescence ratio of 1.79. In the case of CCGGCTAGAA, the switch fluorescence ratio is reported as 1.27. Sequence CCGGCTTTTC has a switch fluorescence ratio of 3.39. For CCGGGAATGC, the switch fluorescence ratio was 3.78. In the case of CCGGGTTAAC, the switch fluorescence ratio is reported as 1.16. For CCGGTACGTA, the switch fluorescence ratio was 1.01. In the case of CCGGTATAGC, the switch fluorescence ratio is reported as 1.75. CCGGTATCAG showed a switch fluorescence ratio of 1. CCGGTATGCG gave a switch fluorescence ratio of 0.993. Sequence CCGGTCACAT has a switch fluorescence ratio of 1.15. With CCGGTGAACA the switch fluorescence ratio was 0.969. CCGGTGGAGG was tested, and the switch fluorescence ratio was 0.987. For CCGGTTCGGC, the switch fluorescence ratio was 1.03. Sequence CCGTAAGGTT has a switch fluorescence ratio of 0.993. In the case of CCGTAGAGGT, the switch fluorescence ratio is reported as 1.36. CCGTATACTG was tested, and the switch fluorescence ratio was 1.19. Work on CCGTATAGGA yielded a switch fluorescence ratio of 1.01. Sequence CCGTCATTAG has a switch fluorescence ratio of 4.01. Sequence CCGTCCGCCT has a switch fluorescence ratio of 2.28. CCGTCGGCGG showed a switch fluorescence ratio of 1.04. CCGTCTGTG showed a switch fluorescence ratio of 1.03. Sequence CCGTGAACAT has a switch fluorescence ratio of 1.04. Work on CCGTGAGCCA yielded a switch fluorescence ratio of 2.13. Sequence CCGTGCGCCT has a switch fluorescence ratio of 1.71. For CCGTGCTCGG, the switch fluorescence ratio was 0.997. CCGTGGCCAT was tested, and the switch fluorescence ratio was 1.1. CCGTGGTGAA was tested, and the switch fluorescence ratio was 1.06. CCGTGGTTCC was tested, and the switch fluorescence ratio was 1.17. CCGTGTGTCT gave a switch fluorescence ratio of 1.03. Sequence CCGTGTTTTG has a switch fluorescence ratio of 0.971. In the case of CCGTTATGGT, the switch fluorescence ratio is reported as 1.02. In the case of CCGTTCCGGC, the switch fluorescence ratio is reported as 1.07. With CCGTTGAGGC the switch fluorescence ratio was 1.29. In the case of CCGTTTCCGT, the switch fluorescence ratio is reported as 1.08. CCTAAAGGTA showed a switch fluorescence ratio of 1.02. With CCTAACGAAT the switch fluorescence ratio was 1.11. CCTACAGGGG was tested, and the switch fluorescence ratio was 2.77. CCTACATACA was tested, and the switch fluorescence ratio was 1.45. Work on CCTACCTTTC yielded a switch fluorescence ratio of 1.26. CCTACTCTCG showed a switch fluorescence ratio of 1.09. For CCTACTGGAC, the switch fluorescence ratio was 1.19. CCTAGCTCCT showed a switch fluorescence ratio of 1.12. For CCTAGGGATT, the switch fluorescence ratio was 1.04. With CCTAGTGCAC the switch fluorescence ratio was 1.02. For CCTATAGGGT, the switch fluorescence ratio was 0.968. CCTATATGGT showed a switch fluorescence ratio of 1.02. With CCTATGCCGT the switch fluorescence ratio was 1.03. In the case of CCTATGTCTA, the switch fluorescence ratio is reported as 1.17. CCTATTAGGC was tested, and the switch fluorescence ratio was 0.887. CCTATTCACT showed a switch fluorescence ratio of 1.07. CCTCACATCA was tested, and the switch fluorescence ratio was 1.28. In the case of CCTCACTTGC, the switch fluorescence ratio is reported as 4.55. Sequence CCTCAGACAT has a switch fluorescence ratio of 2.91. CCTCATAG was tested, and the switch fluorescence ratio was 1.4. Sequence CCTCATCGAT has a switch fluorescence ratio of 3.65. CCTCATGTTT was tested, and the switch fluorescence ratio was 1.21. With CCTCCAAAGG the switch fluorescence ratio was 3.25. In the case of CCTCCTGGCG, the switch fluorescence ratio is reported as 1.72. In the case of CCTCGAACGG, the switch fluorescence ratio is reported as 1.15.
